# Data from PMC4336329 (PLoS ONE, 2015).
# Screen size: about 310,000 compounds; about 2,200 (0.71%) showed an effect of 50% or more. The effect is printed as a negative number. Some of the results follow.
# Molecular target: human ether-à-go-go-related gene (hERG) potassium channel (human, UniProt Q12809)
# Assay: primary screen, population patch clamp on CHO cells stably expressing hERG
# human ether-à-go-go-related gene (hERG) potassium channel, sequence (Q12809 whole entry, looked up): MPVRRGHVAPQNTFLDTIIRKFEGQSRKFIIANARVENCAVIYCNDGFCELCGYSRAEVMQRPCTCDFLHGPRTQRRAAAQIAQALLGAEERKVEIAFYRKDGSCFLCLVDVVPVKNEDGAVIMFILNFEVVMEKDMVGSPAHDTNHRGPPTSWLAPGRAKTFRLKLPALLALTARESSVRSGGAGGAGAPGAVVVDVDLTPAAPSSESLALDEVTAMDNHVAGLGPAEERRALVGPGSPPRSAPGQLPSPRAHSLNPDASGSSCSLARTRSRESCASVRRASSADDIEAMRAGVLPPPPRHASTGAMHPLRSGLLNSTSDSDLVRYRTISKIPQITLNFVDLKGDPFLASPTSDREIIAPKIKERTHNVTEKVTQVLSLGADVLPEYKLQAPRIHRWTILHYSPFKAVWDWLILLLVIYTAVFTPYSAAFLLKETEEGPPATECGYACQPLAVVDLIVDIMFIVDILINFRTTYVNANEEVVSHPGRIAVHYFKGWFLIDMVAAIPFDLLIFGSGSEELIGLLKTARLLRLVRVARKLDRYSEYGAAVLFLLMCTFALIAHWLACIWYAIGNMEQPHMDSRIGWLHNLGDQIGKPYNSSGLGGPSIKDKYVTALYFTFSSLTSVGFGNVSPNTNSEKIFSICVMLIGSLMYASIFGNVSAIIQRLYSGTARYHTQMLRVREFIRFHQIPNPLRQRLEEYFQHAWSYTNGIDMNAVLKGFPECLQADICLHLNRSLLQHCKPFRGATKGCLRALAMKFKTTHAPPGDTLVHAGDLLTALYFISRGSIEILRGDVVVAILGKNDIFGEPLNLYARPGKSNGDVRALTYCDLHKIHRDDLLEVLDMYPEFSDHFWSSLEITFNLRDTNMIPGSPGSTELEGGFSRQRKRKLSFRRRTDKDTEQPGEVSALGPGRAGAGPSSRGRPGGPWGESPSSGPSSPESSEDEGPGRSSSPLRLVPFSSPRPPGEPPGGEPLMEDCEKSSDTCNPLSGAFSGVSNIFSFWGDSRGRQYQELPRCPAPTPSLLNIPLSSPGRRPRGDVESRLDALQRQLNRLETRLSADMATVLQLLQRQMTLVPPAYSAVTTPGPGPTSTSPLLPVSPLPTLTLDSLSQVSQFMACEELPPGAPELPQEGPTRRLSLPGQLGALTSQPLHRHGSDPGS
row,SMILES,"hERG current change (%, negative = inhibition) at 1uM [%]"
1,CC(OC(=O)c1ccc([N+](=O)[O-])s1)C(=O)NC1CCCCC1C (stereo not drawn),6.37
2,CCOC(=O)N1CC=C2C(C#N)=C(N)C(C#N)(C#N)[C@H](c3cccs3)C2C1 (stereo partly drawn),3.54
3,Cc1[nH]c2ccccc2c1C(c1ccncc1)N1CCN(c2ccccn2)CC1 (stereo not drawn),13.4
4,N#CCC(=O)Nc1ccc(C(=O)OCC(=O)Nc2ccccc2Sc2ccccc2)cc1,8.9
5,COCC(=O)Nc1nc2n(n1)C(c1ccc(Cl)cc1)CC(c1ccc(OC)cc1)N2 (stereo not drawn),-31.1
6,COc1cc(/C=C/C(=O)OCC(=O)Nc2ccc([N+](=O)[O-])cc2)ccc1O,11.8
7,Cc1ccc(Cc2nnc(SCC(=O)Nc3c(C)cccc3C)[nH]c2=O)cc1,-4.17
8,Cc1ccccc1OCCn1cc(/C=C(\C#N)C(=O)NCc2ccco2)c2ccccc21,9.85
9,COCCN(C(=S)Nc1ccccc1OC)C1CCN(C(C)=O)CC1,17.2
10,COc1cccc(/C=N/NC(=O)c2nnn(-c3nonc3N)c2C(C)C)c1,15.9
11,C/C(CC(C)(C)c1ccccc1)=N\NS(=O)(=O)c1ccccc1,15.6
12,CCC(C)(C)NC(=O)C(c1ccccc1Cl)N(C(=O)CCC(=O)Nc1cc(C)on1)C(C)(C)C (stereo not drawn),7.16
13,CCc1ccccc1N(CC)C(=O)c1cn(CC)c(=O)c2cc(OC)c(OC)cc12,9.82
14,CCc1ccccc1NC(=S)N(CCN1CCOCC1)C1CCN(C(C)=O)CC1,17.6
15,CCOc1ccc(-c2noc(=O)[nH]2)cc1,-4.45
16,Cc1noc(C)c1COc1ccc(C(=O)NNC(=O)c2ccccc2F)cc1,7.24
17,Oc1ccccc1N1CCN(C(=S)NCc2ccccc2)CC1,3.2
18,O=C(NCCN1C(=O)C2C3C=CC(C3)C2C1=O)Nc1cccnc1 (stereo not drawn),10.3
19,CCOc1ccccc1NC(=O)c1nnn(-c2ccc3c(c2)OCCO3)c1N,14.2
20,CC(=O)N(c1ccccc1)c1ccc([N+](=O)[O-])cc1[N+](=O)[O-],3.46
21,COC(=O)c1cc(NC(=O)Cc2ccc(OC)c(OC)c2)cc(C(=O)OC)c1,3.88
22,COc1ccc(-c2nnc(SCC#CCO)o2)cc1OC,5.94

row,SMILES,"hERG current change (%, negative = inhibition) at 1uM [%]"
1,O=S1(=O)C[C@@H](N2CCOCC2)[C@H](N2CCOCC2)C1,1.34
2,O=[N+]([O-])c1ccc(Nc2ccccc2O)c2nonc12,13.1
3,Cc1ccc2nc(NC(=O)CN3C(=O)C4CC=CCC4C3=O)sc2c1 (stereo not drawn),1.36
4,COc1ccc(CNC(=O)[C@H](C)NC(=O)N2CCn3c2nc2ccccc23)cc1,-20.7
5,COc1ccccc1CN(Cc1cc2cc(C)cc(C)c2[nH]c1=O)Cc1nnnn1CC1CCCO1 (stereo not drawn),14.1
6,CCOC(=O)C1CCN(S(=O)(=O)Cc2ccc(Cl)cc2)CC1,17.4
7,CN(CC(=O)Nc1ccc(F)cc1)CC(=O)N(C)C1(C#N)CCCCC1,0.449
8,O=C(Cn1cncn1)c1ccccc1,4.12
9,NC(C(=O)O)c1cc(=O)[nH]o1 (stereo not drawn),9.36
10,CC(C)CCNCC(O)CON=C1c2ccccc2-c2ccccc21 (stereo not drawn),2
11,CCOc1ccc(/C=C2/C(=O)N(c3ccc(OC)cc3)C(=S)N2CC(=O)OC)cc1OCC,4.96
12,COc1ccc(-c2csc(NC(=O)C3CC(=O)N(Cc4ccccc4)C3)n2)cc1OC (stereo not drawn),7.61
13,CCOc1ccc(N(CC(=O)NN=C2CCN(C)CC2)S(=O)(=O)c2ccc(Br)cc2)cc1,-11.3
14,CC(C)CCN1CCN(Cc2ccc3nsnc3c2)CC1CCO (stereo not drawn),-21.3
15,CC(C)(Cc1ccc(O)cc1)NC(=O)CC(=O)N=Nc1c(O)[nH]c2ccc(Br)cc12,21.3
16,O=C(CSc1nccn(-c2cccc(F)c2)c1=O)Nc1ccc(Cl)cc1F,15
17,CCOC(=O)c1sc(NC(=O)Nc2cccc(Cl)c2)cc1C,10.7
18,Cc1ccc2c(c1)NC(=O)C(CC(=O)NC1CCCCC1C)O2 (stereo not drawn),2.12
19,O=C(/C=C/c1cc([N+](=O)[O-])ccc1OC(F)F)Nc1ccc(OC(F)F)cc1,13.3
20,CCN(CC)CCC(=O)NN,6.1
21,O=C1Nc2ccc([N+](=O)[O-])cc2C1(O)N1CCCCCC1 (stereo not drawn),0.0481
22,O=C1c2ccccc2S(=O)(=O)c2cc(N3CCOCC3)ccc21.O=C1c2ccccc2S(=O)(=O)c2cc(N3CCOCC3)ccc21,8.78

row,SMILES,"hERG current change (%, negative = inhibition) at 1uM [%]"
1,O=C(CCC(=O)Nc1ccc(Cl)cc1)N/N=C/c1ccc2c(c1)OCO2,15.8
2,O=C(O)c1ccc(NC(=O)C2(c3ccccc3)CCOCC2)cc1,13.8
3,O=C(O)/C(=C\c1ccc(Br)cc1)NC(=O)c1cccs1,11.4
4,COC(=O)c1cc(C(=O)NCCN2C(=O)S/C(=C\c3cccs3)C2=O)cc([N+](=O)[O-])c1,1.6
5,CCCCN(C(=O)NC(=O)Nc1ccccc1OCC)S(C)(=O)=O,10.9
6,CCN1CCN(CCCOc2ccc(-c3ccccc3)cc2)CC1,-39.8
7,COc1ccc2c3c1OC1CC(O)C=CC31CCN(C)C2.I (stereo not drawn),19.1
8,O=NN1CCN(c2ccncc2S(=O)(=O)N2CCCCC2)CC1,14.3
9,C=CCn1c(COc2cccc3ccc(C)nc23)nnc1SCC(=O)OC,1.8
10,CC12CCC(C(=O)N(Cc3ccccc3)Cc3ccccc3)(OC1=O)C2(C)C (stereo not drawn),8.51
11,COc1ccccc1CN1CCN(Cc2cc(OC)c(OC)cc2OC)CC1.O=C(O)C(=O)O,2.86
12,CC(=O)C(N=Nc1ccccc1)(Sc1nnc(-c2ccccc2)n1-c1ccccc1)C(C)=O,11.6
13,COc1cc(OC)cc(C(=O)NCCSc2c[nH]c3ccccc23)c1,2.36
14,Cc1cc(-c2csc(NC(=O)c3ccc(C#N)cc3)n2)c(C)n1Cc1ccco1,17.6
15,COc1ccccc1S(=O)(=O)Cc1ccc(C(=O)N2CCN(c3ccccn3)CC2)o1,-1.31
16,CCCC(C)C(=O)Nc1ccc(Cl)cn1 (stereo not drawn),13.1
17,CC(C)(C)NC(=O)C(c1ccc(O)cc1)N(Cc1ccco1)C(=O)CCC(=O)Nc1ccccn1 (stereo not drawn),7.67
18,CCC(=O)Nc1nnc(S(=O)(=O)N2CCCC2)s1,12.2
19,O=C(Nc1ncn[nH]1)c1cccc(S(=O)(=O)N2CCOCC2)c1,10.5
20,CCn1cc(CNC(=O)c2ccc(OC3CCN(Cc4ccccn4)CC3)cc2)cn1,9.41
21,C=CCNC(=O)N[C@@H](Cc1ccccc1)C(=O)OC,15.1
22,O=C(C[n+]1cc(-c2ccccc2)n2c1CCC2)N1c2ccccc2Sc2ccccc21.[Cl-],6.31

row,SMILES,"hERG current change (%, negative = inhibition) at 1uM [%]"
1,NS(=O)(=O)c1ccc(CNC(=O)c2ccc(NS(=O)(=O)c3ccc4[nH]c(=O)[nH]c4c3)cc2)cc1,-9.86
2,CCN(CC)C(=O)c1cccc(NC(=O)c2ccccc2OCc2c(C)noc2C)c1,-0.828
3,COc1ccc(NS(=O)(=O)c2cccc(C(=O)NNC(=O)c3ccc(Br)o3)c2)cc1,6.63
4,N#CCCN(C(=O)COC(=O)CCc1ccccc1)c1ccccc1,6.66
5,Cc1ccc(NC(=O)CN2C(=O)CC(C)S(=O)(=O)c3ccccc32)cc1 (stereo not drawn),10.1
6,CCOC(=O)c1c(C)nc2c(c1-c1ccc(Cl)cc1)C(=O)CC(C)(C)C2,12.8
7,CN(C)c1ccc(NC(=O)C2CCCN(S(=O)(=O)c3ccccc3)C2)cc1 (stereo not drawn),9.75
8,CC1CN=C(Nc2ccc(N(C)C)cc2)S1 (stereo not drawn),10.3
9,O=C(OCCN1CCN(C2=NS(=O)(=O)c3ccccc32)CC1)c1cccc(Br)c1,-26.1
10,O=C(CSc1nnc(NC(=O)Cc2ccc(F)cc2)s1)NCc1ccco1,3.46
11,CN(C)S(=O)(=O)c1ccc(C(=O)N2CC(=O)Nc3ccc(F)cc3C2c2ccc(F)cc2)cc1 (stereo not drawn),6.56
12,CCOC(=O)c1sc(=S)n(-c2ccccc2OC)c1N,8.38
13,Br.CCCCn1c(=N)n(CC(=O)C(C)(C)C)c2ccccc21,-28.2
14,O=c1nc(N2CCCCCC2)nc(N2CCCCCC2)[nH]1,1.56
15,CCN(C(=O)c1cccc(Br)c1)C1CCS(=O)(=O)C1 (stereo not drawn),8.5
16,COc1cc(/C=N/N=C2/NC(=O)C(Cc3ccccc3)S2)ccc1O (stereo not drawn),3.18
17,O=C(CSC1=N/C(=C/c2ccc(Cl)c(Cl)c2)C(=O)N1c1ccccc1F)NC1CC1,7
18,COc1ccccc1/C=N/NC(=O)CC(=O)NCCc1ccccc1,11.2
19,COc1ccccc1-n1c(=O)[nH]c2c(C(N)=O)nc(C3CCCCC3)nc21,8.91
20,CC(Oc1ccc(Br)cc1)C(=O)NCC1(N2CCCCC2)CCCCC1 (stereo not drawn),-2.47
21,O=C(Nc1cc(Cl)ccn1)C1(c2ccccc2)CC1(Cl)Cl (stereo not drawn),15.2
